The values that follow come from ChEMBL document CHEMBL4888484, “Replenishing the malaria drug discovery pipeline: Screening and hit evaluation of the MMV Hit Generation Library 1 (HGL1) against asexual blood stage Plasmodium falciparum ,using a nano luciferase reporter read-out” (2022).

Broadly, the % Inhibition is the relative decrease from the control value, in per cent.

Out of some 150,000 compounds screened, about 540 (0.36%) showed an effect of 50% or more. The list shows a part of the results.

The test system of the test is Plasmodium falciparum. The test can be described thus: Primary screen in NF54 nanoGlo assay, in single point, at 2uM, 72h; a lower Z score goes with more inhibition. Conditions: timepoint 72 hour. The class given is functional, Erythrocyte.
Turning to `COc1ccc(S(=O)(=O)N2CCOCC2)cc1NC(=O)Cc1ccc(F)cc1`, the “% Inhibition” value was -15% and the Z score is 1.99.
Regarding `CCN(C(=O)C1=NN(c2ccccc2)C(=O)CC1)c1ccccc1`, the “% Inhibition” value is 3% and the Z score is recorded as -0.65.
In the case of `Cc1ccc2[nH]nc(CNC(=O)[C@@H]3CCC(=O)N3)c2c1`, the “% Inhibition” value stood at 2% and the Z score is listed as -0.29.
`O=C(c1cncc(NC[C@@H](c2ccccc2)N2CCCCCC2)n1)N1CCCC1`: the “% Inhibition” value worked out at 5% and the Z score is on record as -0.88.
The like results for `O=C(Cc1c[nH]c2ccccc12)Nc1cc(S(=O)(=O)N2CCOCC2)ccc1N1CCOCC1` were, in that order, -4% and 0.71.
Consider `Cc1nc(NC(=O)C2=NN(C)C(=O)CC2)sc1-c1ccccn1`, for which the “% Inhibition” value is reported as 15% and the Z score was -1.97.
As to `Cc1cnc(CNC(=O)c2coc(COc3ccc(F)cc3Cl)n2)cn1`, the “% Inhibition” value is on record as -8% and the Z score is reported as 1.3.
In the case of `Cc1ccc(Cn2nnc3c(O)nc([C@H]4CCCN(C(=O)COc5ccc(F)cc5)C4)nc32)cc1`, the “% Inhibition” value is -15% and the Z score is reported as 1.33.
The like results for `Cc1cc(F)ccc1-c1cccc(C(=O)N(C)CC2(CO)CCCC2)c1` were, in that order, -6% and 0.59.
For `COc1ccccc1-c1nc(-c2cccc(OCc3ccc(C)cc3)c2)no1`, the “% Inhibition” value is recorded as -5% and the Z score is 0.84.
On to `CCN(CC)C(=O)COc1c(OC)cccc1C(N)=O`, for which the “% Inhibition” value was found to be 2% and the Z score is on record as -0.44.
On to `CC(C)Cc1cc(-c2nccn2CC(N)=O)n[nH]1`, for which the “% Inhibition” value is recorded as -3% and the Z score stood at 0.38.
With `COc1ccccc1/C=C/CN1CCN(Cc2ccc(C)o2)[C@@H](CCO)C1`, the “% Inhibition” value was -11% and the Z score was found to be 1.41.
For `CN(C(=O)c1ccc(C(=O)O)cn1)C1CCCCC1c1ccccc1` (stereo unspecified), the “% Inhibition” value is -6% and the Z score was 0.61.
As to `Cc1cn2nc(N3CCCC3)sc2n1`, the “% Inhibition” value is given as -14% and the Z score is given as 1.58.
As for `C[C@@H](CCc1ccccc1)NC(=O)CCC(=O)N1CCCn2nc(-c3cccn3C)cc21`, the “% Inhibition” value is -4% and the Z score amounted to 0.69.
`COCCCN(Cc1c(-c2ccccc2)noc1N1CCCC1)C(=O)c1ccccc1C`: the “% Inhibition” value was found to be 11% and the Z score is on record as -1.5.
Turning to `Cc1noc2ncnc(NCC3CCCC34NC(=O)NC4=O)c12` (stereo unspecified), the “% Inhibition” value is reported as -10% and the Z score was 1.27.
The like results for `COc1ccc(-c2cnoc2-c2cc(OC)c3c(c2)OCO3)cc1` were, in that order, 6% and -0.72.
With `COCCc1noc(CN2C(C)CCCC2c2ccccc2)n1` (stereo unspecified), the “% Inhibition” value is reported as -14% and the Z score is 1.24.
The like results for `N#Cc1ccccc1OCC(=O)N1CCC[C@H]1c1ccc2c(c1)OCCCO2` were, in that order, 1% and -0.11.
For the compound `O=C(NC1COc2c1ccc(Cl)c2Cl)N1CC2CCC1C(CO)C2` (stereo unspecified), the “% Inhibition” value is -4% and the Z score was found to be 0.77.
In the case of `CCOC(=O)N1CCN(C(=O)c2ccc(-c3cnn(C)c3N)cc2)CC1`, the “% Inhibition” value came out at 4% and the Z score is listed as -0.74.
